Laboratory results taken from publication PMC4336329 (PLoS ONE, 2015).
The campaign covered roughly 310,000 compounds. About 2,200 (0.71%) showed an effect of 50% or more. The effect is printed as a negative number. Some of the results follow.

Target: human ether-à-go-go-related gene (hERG) potassium channel (human, UniProt Q12809)
Assay: primary screen, population patch clamp on CHO cells stably expressing hERG

Chain of human ether-à-go-go-related gene (hERG) potassium channel (Q12809 whole entry, looked up): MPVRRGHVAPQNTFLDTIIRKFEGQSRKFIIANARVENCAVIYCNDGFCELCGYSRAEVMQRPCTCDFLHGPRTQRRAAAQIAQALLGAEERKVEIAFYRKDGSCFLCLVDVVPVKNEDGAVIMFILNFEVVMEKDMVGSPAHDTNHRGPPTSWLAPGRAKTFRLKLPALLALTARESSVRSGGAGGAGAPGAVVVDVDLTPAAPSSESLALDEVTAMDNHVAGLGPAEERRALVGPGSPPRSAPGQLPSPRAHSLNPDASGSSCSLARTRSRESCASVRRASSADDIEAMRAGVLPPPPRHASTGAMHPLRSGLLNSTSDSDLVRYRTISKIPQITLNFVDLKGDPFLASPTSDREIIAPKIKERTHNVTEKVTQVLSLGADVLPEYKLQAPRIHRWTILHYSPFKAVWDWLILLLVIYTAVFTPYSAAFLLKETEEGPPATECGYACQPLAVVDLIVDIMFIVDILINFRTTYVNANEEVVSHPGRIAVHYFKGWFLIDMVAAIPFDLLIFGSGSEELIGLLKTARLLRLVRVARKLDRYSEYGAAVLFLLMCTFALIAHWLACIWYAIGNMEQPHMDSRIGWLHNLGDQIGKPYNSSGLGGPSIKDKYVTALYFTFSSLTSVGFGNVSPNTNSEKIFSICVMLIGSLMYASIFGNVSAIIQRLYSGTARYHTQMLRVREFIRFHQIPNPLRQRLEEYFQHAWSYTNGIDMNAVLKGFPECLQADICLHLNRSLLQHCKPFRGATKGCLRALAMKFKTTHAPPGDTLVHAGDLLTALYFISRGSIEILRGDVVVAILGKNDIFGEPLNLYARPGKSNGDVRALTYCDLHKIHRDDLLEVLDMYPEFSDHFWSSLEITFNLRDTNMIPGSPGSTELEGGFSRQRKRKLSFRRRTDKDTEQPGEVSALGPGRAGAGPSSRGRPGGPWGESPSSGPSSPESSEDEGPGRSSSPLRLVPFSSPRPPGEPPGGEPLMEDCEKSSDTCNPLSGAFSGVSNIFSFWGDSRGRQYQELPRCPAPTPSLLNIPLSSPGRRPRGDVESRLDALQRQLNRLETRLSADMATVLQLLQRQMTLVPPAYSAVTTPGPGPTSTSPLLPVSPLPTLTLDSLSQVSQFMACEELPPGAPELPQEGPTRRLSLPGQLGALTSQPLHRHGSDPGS

SMILES	hERG current change (%, negative = inhibition) at 1uM [%]
CC(C)CN(CC(C)C)c1ccc(C=C2C(=O)NC(=S)NC2=O)cc1[N+](=O)[O-]	7.8
COc1ccc(NC(=O)/C(=C\c2cccnc2)NC(=O)c2cccs2)cc1	5.37
CCN(c1ccccc1)S(=O)(=O)c1cnc[nH]1	7.28
Cn1c(SCC(=O)Nc2cccc(C(=O)O)c2)nnc1-c1cc2cc(Br)ccc2o1	7.62
COCCNC(=O)CN1CCN(Cc2cccc(Cl)c2)C1=O	7.21
COc1ccc(CNC(=O)C2CCN(c3nc(-c4ccccc4)nc4c3CCC4)CC2)cc1	4.67
C=CCC1(CC=C)CCCN1C(=O)CC1C(=O)NCCN1Cc1cccc(OC)c1 (centres unmarked)	6.95
CCOC(=O)N1CCN(S(=O)(=O)c2c(C)[nH]c(=O)[nH]c2=O)CC1	7.3
CC(=O)Nc1ccc(S(=O)(=O)NCc2ccc(C(=O)NCCN3CCCCCC3)cc2)cc1	12.5
C[C@H](NC(=O)Nc1cccc(C(F)(F)F)c1)C(=O)O	2.04
Nc1ccc2[nH]ncc2c1	15.6
COCc1cc(C)nc(OCC(=O)N/N=C/c2ccccc2O)c1C#N	16.6
Clc1ccc(CN2CCCCCC2)cc1Cl	6
CCOC(=O)C1CCN(S(=O)(=O)c2ccc(C(C)(C)C)cc2)CC1	20
COCCCC1CCN(Cc2nc(-c3ccccc3)no2)CC1	-2.14
Cc1cccc(OCC(=O)NC(Cc2c[nH]c3ccccc23)C(=O)O)c1C (centres unmarked)	13.6
CCN1C(=O)c2ccccc2S(=O)(=O)c2ccc(C(=O)NC(C)C)cc21	5.38
O=C(NN=C1CCCCCC1)c1c[nH]c2ccccc12	12.9
[Br-].c1ccc2c(C[n+]3csc4ccccc43)cccc2c1	11.6
CC(C)Oc1ccc(CCc2nnc(SCC(=O)O)n2-c2ccccc2)cc1	10
CCc1cc(C(=O)Cc2ccccn2)c(O)cc1O	10.3
CCS(=O)(=O)N1CCN(c2ccc(Cl)cc2[N+](=O)[O-])CC1	-0.234
CCOc1ccc(-c2nc(CSc3nnc(N)s3)cs2)cc1OC	2.61
COc1ccc(C(=O)Cc2cnn(-c3ccccc3)c2)c(O)c1	12.2
Cc1nnsc1-c1onc(C)c1C(=O)Nc1cc(Cl)cc(Cl)c1	16.9
NC(=S)n1[nH]c(-c2ccccc2)c(N=Nc2ccccc2C(=O)N2CCOCC2)c1=O	4.27
